Among all 130,000 compounds or so, about 1,200 (0.92%) were called active. The inconclusive results got no clear call from the source; some entries with a clear call stand among them for comparison. Calls come from the whole dose curve; as a rule, active = well fitted cell-killing curve with a large enough effect; inconclusive = small, poorly fitted or top-dose-only effect; inactive = no such curve, though single readings can be large or run the other way. Where the call is inconclusive, the potency comes from a doubtful curve fit.
assay: qHTS Screen for Compounds that Selectively Target Cancer Cells with p53 Mutations: Cytotoxicity of p53ts Cells at the Permissive Temperature; conditions: H1299-p53A138V at 32C, ATP luminescence viability, 24 h; activity change, negative = cytotoxicity: at 46.1 µM (top of the series); note: nearly all actives have a fitted effect of over 55% in size;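 for activity change, negative = cytotoxicity: 0% = DMSO and -100% = full killing by reference compound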
Outline: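 Viability by ATPlite luminescence after 24 h compound treatment (up to 46 uM) at the permissive 32C. Cells are H1299 carrying p53 A138V. Scale runs from DMSO basal to 100 uM tamoxifen as full kill; AC50 from Hill fits.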
Potency is the fitted concentration of half-maximal effect; tags give direction and shape of the fitted curve.

SMILES | Potency | activity change, negative = cytotoxicity
Clc1ccc(-c2nnc(NC3=NCCCCC3)o2)cc1 | active: 12.6 µM | –
Cc1noc(C)c1S(=O)(=O)N1CCC(C(=O)Nc2ccc(OC(F)(F)F)cc2)CC1 | inconclusive: 12.6 µM [cytotoxic, partial curve] | –
CC(=O)OCC(=O)N1CCN(c2ccc([N+](=O)[O-])cc2)CC1 | inconclusive: 0.0045 µM [cytotoxic, full curve, poor fit] | –
CCC(C)C(NC(=O)C(C)NC(=O)CNC(=O)CNC(=O)OCc1ccccc1)C(=O)OC (stereo not drawn) | inconclusive: 0.891 µM [cytotoxic, partial curve, poor fit] | –
CC(C)c1ccc2oc(-c3cccc(NC(=O)c4ccc5c(c4)OCCO5)c3)nc2c1 | inconclusive: 12.6 µM [cytotoxic, single point] | –
CCOC(=O)c1c(NC(=O)c2ccc(S(=O)(=O)N3CCCC(C)C3)cc2)sc2c1CCN(C(C)C)C2 (stereo not drawn) | inconclusive: 20 µM [cytotoxic, partial curve] | –
CC(=O)Nc1cccc(NC(=O)Nc2ccc(C(C)=O)cc2)c1 | inconclusive: 12.6 µM [cytotoxic, partial curve] | –
Cc1csc(NC(=O)CSc2nnc(-c3ccoc3C)o2)n1 | inconclusive: 15.8 µM [cytotoxic, single point] | –
Cc1cc(C)c2c(N)c(C(=O)Nc3ncc(C)s3)sc2n1 | active: 1 µM | –
Cc1ccc(-c2nc3ccc(Cl)cn3c2Nc2ccc3c(c2)OCCO3)s1 | inconclusive: 12.6 µM [cytotoxic, partial curve] | –
Cc1ccc(NC2=Nc3ccccc3CS2)cc1 | inconclusive: 12.6 µM [cytotoxic, single point] | –
COCCNC(=O)C(c1cccs1)N(Cc1cccs1)C(=O)Cn1nnc2ccccc21 (stereo not drawn) | – | inactive: 9.06%
Cc1c(-c2nc(N)nc(C3CC3)c2C)nc(N)nc1C1CC1 | – | inactive: 4.05% [at 9.22 µM]
O=C(Nc1c(C(=O)Nc2cccc(F)c2)oc2ccccc12)c1cc2ccccc2o1 | inconclusive: 10 µM [cytotoxic, partial curve] | –
Fc1ccc(-c2nnc(-c3ccc(Cl)cc3)o2)cc1 | inconclusive: 7.94 µM [cytotoxic, partial curve] | –
CCCc1cc(C(=O)Nc2cc(Br)ccc2O)no1 | – | inactive: -17.6%
CCc1ccccc1Nc1cc(C(=O)NC2CCC(C)CC2)c2ccccc2n1 (stereo not drawn) | inconclusive: 12.6 µM [cytotoxic, single point] | –
CCOC(=O)c1c(NC(=S)Nc2ccccc2)sc(C)c1C | inconclusive: 0.398 µM [cytotoxic, full curve, poor fit] | –

Reference: PubChem BioAssay AID924 (National Center for Advancing Translational Sciences (NCATS), 2007)
